Laboratory results reported in PubChem BioAssay AID588855 (National Center for Advancing Translational Sciences (NCATS), 2011).
Screen size: about 410,000 compounds; about 5,000 (1.2%) were called active. The inconclusive results got no clear call from the source; some entries with a clear call stand among them for comparison. Calls follow the shape of the dose curve; as a rule, active = well fitted inhibition curve with a large enough effect; inconclusive = small, poorly fitted or top-dose-only effect; inactive = no such curve, though single readings can be large or run the other way. Potencies beside an inconclusive call are fits to weak or partial responses and may not hold up.

test: qHTS for Inhibitors of TGF-b; details: HepG2 CAGA-GFP TGF-b/SMAD3 reporter, GFP fluorescence, 18 h, TGF-beta stimulated, 500 pg/mL final; series mostly up to 46.1 µM; activity, negative = inhibition: at the top concentration; also: nearly all actives have a fitted effect of over 65% in size
In short: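 Smad-responsive CAGA-GFP expression was quantified in HEPG2 cells exposed to compounds and 500 pg/mL final TGF-beta for 18 h at 37 degrees C; unstimulated wells defined full inhibition.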
% is scaled to controls: 0 for no effect and ±100 for the full control effect; potency is read from the fitted curve at half-maximal effect; tags tell the direction and shape of the fitted curve.

Row | SMILES | Potency | activity, negative = inhibition
1 | O=C1Nc2ccccc2/C1=C/C(=O)c1cccs1 | inconclusive: 35.5 µM [inhibitor, partial curve, poor fit] | –
2 | Cc1cc(C)c2nc(NNC(=O)c3ccc(S(=O)(=O)N4CCCCC4)cc3)sc2c1 | inconclusive: 22.4 µM [inhibitor, single point] | –
3 | Cc1cc(C)c(O)c(-c2cc(C(=O)Nc3ccc(S(=O)(=O)N4CCOCC4)cc3)[nH]n2)c1 | inconclusive: 17.8 µM [inhibitor, single point] | –
4 | CCOC(=O)C1=C(C)NC(=O)NC1c1cn(-c2ccccc2)nc1-c1ccc(OC(C)C)cc1 (stereo not drawn) | inconclusive: 17.8 µM [inhibitor, single point] | –
5 | O=C(Oc1cccc(Br)c1)c1cccnc1 | inconclusive: 0.1 µM [inhibitor, full curve, poor fit] | –
6 | Brc1ccc(C2=CC(c3cccs3)n3ncnc3N2)cc1 (stereo not drawn) | – | inactive: 20%
7 | O=C(Nc1nc2n(n1)C(c1ccc(Cl)cc1)C=C(c1ccccc1)N2)c1ccco1 (stereo not drawn) | – | inactive: 12.1%
8 | Cc1c(C(=O)N(C)C2CCCCC2)sc2ncnc(N3CCN(c4ccccc4)CC3)c12 | inconclusive: 35.5 µM [inhibitor, single point] | –
9 | O=C(CN1C(=O)NC(c2ccccc2)(c2ccccc2)C1=O)NC1CCCC1 | – | inactive: -0.81%
10 | Cc1ccccc1C(=O)N1CCC(C(=O)Nc2ccc(C)c(S(=O)(=O)N3CCCCC3)c2)CC1 | inconclusive: 28.2 µM [inhibitor, single point] | –
11 | OCc1cnc(SCc2ccc(F)cc2)n1Cc1ccc(F)cc1 | inconclusive: 35.5 µM [inhibitor, single point] | –
12 | COc1cc(/C=C/c2nc(-c3ccccc3O)n[nH]2)cc(OC)c1OC | inconclusive: 17.8 µM [inhibitor, single point] | –
13 | CCOc1ccc(C(=O)N(Cc2cc(OC)c(OC)c(OC)c2)c2ccccn2)cc1 | inconclusive: 11.2 µM [inhibitor, partial curve, poor fit] | –
14 | CCOC(=O)N1CCN(C(=O)CSCc2ccc(Br)cc2)CC1 | inconclusive: 25.1 µM [inhibitor, single point] | –
15 | Cn1c(=O)c2c(nc(N3CCOCC3)n2Cc2c(F)cccc2Cl)n(C)c1=O | – | inactive: 0.67%
16 | Cc1cc(Br)cc2c1N(C)C(=O)C2(c1ccc(O)cc1)c1ccc(O)cc1 | inconclusive: 20 µM [inhibitor, single point] | –
17 | COc1ccc(-c2c3c(=O)n(C)c(=O)n(C)c3c3n2-c2ccccc2NC3c2ccc(O)cc2O)cc1 (stereo not drawn) | inconclusive: 0.562 µM [inhibitor, full curve, poor fit] | –
18 | CCn1c(SCc2nc3scc(-c4ccccc4)c3c(=O)[nH]2)nnc1-c1cccs1 | inconclusive: 17.8 µM [inhibitor, single point] | –
19 | O=C(NCCc1nc(-c2ccc(F)cc2)no1)c1ccc(F)cc1 | inconclusive: 31.6 µM [inhibitor, single point] | –

Row | SMILES | Potency | activity, negative = inhibition
20 | Cc1cc(OCCCn2c(CCNC(=O)C3CCCCC3)nc3ccccc32)ccc1Cl | inconclusive: 2 µM [inhibitor, partial curve, poor fit] | –
21 | O=C(COc1ccc(Cl)cc1)Nc1ccccc1C(=O)OCc1cc(=O)n2ccsc2n1 | inconclusive: 22.4 µM [inhibitor, single point] | –
22 | CC(=O)Nc1ccc(Nc2c([N+](=O)[O-])cc(S(C)(=O)=O)cc2[N+](=O)[O-])cc1 | inconclusive: 31.6 µM [inhibitor, single point] | –
23 | CC(C(=O)NCc1ccc(F)cc1)n1ccc2cc(S(=O)(=O)N3CCCC3)ccc21 (stereo not drawn) | – | inactive: -7.45%
24 | COc1cc(OC)cc(-c2sc3ccc(OC)cc3c2-c2ccc(OCCN3CCCCC3)cc2)c1 | inconclusive: 35.5 µM [inhibitor, single point] | –
25 | COc1cc(CN(C)CC2CCCN(CCc3ccccc3F)C2)cc(Cl)c1OC (stereo not drawn) | – | inactive: -17.8%
26 | COC(=O)C1=C(Nc2ccc(C)cc2)C=C(C)C(C(=O)OC)C1c1ccc(F)cc1 (stereo not drawn) | inconclusive: 0.1 µM [inhibitor, full curve, poor fit] | –
27 | C[C@@H]1CN([C@@H](C)CO)C(=O)c2c(c3ccccc3n2C)-c2ccccc2CO[C@H]1CN(C)C(=O)[C@H](Cc1ccccc1)N(C)C | inconclusive: 22.4 µM [inhibitor, single point] | –
28 | COCCn1c(NC(=S)NC(=O)C23CC4CC(CC(C4)C2)C3)cc(=O)[nH]c1=O | inconclusive: 3.55 µM [inhibitor, single point] | –
29 | C#CCOCCOCCOCCNc1nc(N2CCN(C(=O)CCCCCCCCCCNC(=O)[C@@H](CCC(=O)O)n3cc(CCCCCN)nn3)CC2)nc(N2CCN(C(=O)CCCCCCCCCCNC(=O)[C@H]([C@@H](C)CC)n3cc(CCCCCN)nn3)CC2)n1 | inconclusive: 35.5 µM [inhibitor, single point] | –
30 | COc1ccc(Cn2ccnc2SCC(=O)Nc2ccc(C)cc2C)cc1 | inconclusive: 17.8 µM [inhibitor, single point] | –
31 | Cc1cc(OCCCCCNCCO)cc(C)c1Cl | inconclusive: 35.5 µM [inhibitor, partial curve, poor fit] | –
32 | COc1cccc(NC(=O)CN2CCCN(S(=O)(=O)c3ccc(Br)cc3)CC2)c1 | inconclusive: 35.5 µM [inhibitor, single point] | –
33 | COc1cc(C(O)c2nc(-c3csc4ccccc34)cs2)ccc1F (stereo not drawn) | inconclusive: 35.5 µM [inhibitor, single point] | –
34 | Cc1ccc2nc(N(CCCN(C)C)C(=O)c3sc4ccccc4c3Cl)sc2c1 | inconclusive: 28.2 µM [inhibitor, single point] | –
35 | CC1CCN(CCOc2ccc(OCc3ccccc3)cc2)CC1 | inconclusive: 17.8 µM [inhibitor, single point] | –
36 | O=S(=O)(NNc1nccc(C(F)(F)F)n1)c1cccc(Cl)c1Cl | inconclusive: 22.4 µM [inhibitor, single point] | –
37 | COc1ccccc1NC(=O)N(C1CCCC1)C1CCN(C(C)=O)CC1 | inconclusive: 35.5 µM [inhibitor, single point] | –
38 | NC(=O)C1CCN(C(=O)c2ccc(NS(=O)(=O)/C=C/c3ccccc3)cc2)CC1 | – | inactive: 3.92%
